The list shows a part of the results.
What was measured:
Assay in all cases: glycan array binding signal (z-score within array); higher = stronger binding
Conditions in all cases: glycan notation: IUPAC condensed, linker removed
[1] = target: Gal(b1-3)GlcNAc(b1-6)[Gal(b1-3)]GalNAc
Method in brief: (§1)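 The binding signal is a Z-score computed within each array and averaged over linkers. Arrays of the same protein sequence at different concentrations or buffers were also averaged together. Data originate from 3228 arrays in the Consortium for Functional Glycomics database, kept only where the protein sequence was available.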

Gal(b1-3)GlcNAc6S = target: Gal(b1-3)GlcNAc6S
Method in brief: as §1

[2] = target: Gal(b1-3)[Fuc(a1-4)]GlcNAc
Method in brief: as §1

[3] = target: Gal(b1-3)[Fuc(a1-4)]GlcNAc(b1-2)Man
Method in brief: as §1

[4] = target: Gal(b1-3)[Fuc(a1-4)]GlcNAc(b1-2)Man(a1-3)[Gal(b1-3)[Fuc(a1-4)]GlcNAc(b1-2)Man(a1-6)]Man(b1-4)GlcNAc(b1-4)[Fuc(a1-6)]GlcNAc
Method in brief: as §1

[5] = target: Gal(b1-3)[Fuc(a1-4)]GlcNAc(b1-3)Gal(b1-3)[Fuc(a1-4)]GlcNAc
Method in brief: as §1

[6] = target: Gal(b1-3)[Fuc(a1-4)]GlcNAc(b1-3)Gal(b1-4)[Fuc(a1-3)]GlcNAc
Method in brief: as §1

[7] = target: Gal(b1-3)[Fuc(a1-4)]GlcNAc(b1-6)GalNAc
Method in brief: as §1

[8] = target: Gal(b1-3)[GlcNAc(b1-6)]GalNAc
Method in brief: as §1

[9] = target: Gal(b1-3)[Neu5Ac(a2-6)]GalNAc
Method in brief: as §1

[10] = target: Gal(b1-3)[Neu5Ac(a2-6)]GlcNAc(b1-4)Gal(b1-4)Glc
Method in brief: as §1

[11] = target: Gal(b1-3)[Neu5Ac(b2-6)]GalNAc
Method in brief: as §1

Gal(b1-4)Gal = target: Gal(b1-4)Gal
Method in brief: as §1

[12] = target: Gal(b1-4)GalNAc(a1-3)[Fuc(a1-2)]Gal(b1-4)GlcNAc
Method in brief: as §1

[13] = target: Gal(b1-4)GalNAc(b1-3)[Fuc(a1-2)]Gal(b1-4)GlcNAc
Method in brief: as §1

Gal(b1-4)Glc = target: Gal(b1-4)Glc
Method in brief: as §1

Gal(b1-4)Glc6S = target: Gal(b1-4)Glc6S
Method in brief: as §1

Gal(b1-4)GlcNAc = target: Gal(b1-4)GlcNAc
Method in brief: as §1

[14] = target: Gal(b1-4)GlcNAc(a1-6)Gal(b1-4)GlcNAc
Method in brief: as §1

Gal(b1-4)GlcNAc(b1-2)Man = target: Gal(b1-4)GlcNAc(b1-2)Man
Method in brief: as §1

[15] = target: Gal(b1-4)GlcNAc(b1-2)Man(a1-3)Man(b1-4)GlcNAc(b1-4)GlcNAc
Method in brief: as §1

[16] = target: Gal(b1-4)GlcNAc(b1-2)Man(a1-3)[Gal(b1-4)GlcNAc(b1-2)Man(a1-6)]Man(b1-4)GlcNAc(b1-4)GlcNAc
Method in brief: as §1

[17] = target: Gal(b1-4)GlcNAc(b1-2)Man(a1-3)[Gal(b1-4)GlcNAc(b1-2)Man(a1-6)]Man(b1-4)GlcNAc(b1-4)[Fuc(a1-6)]GlcNAc
Method in brief: as §1

[18] = target: Gal(b1-4)GlcNAc(b1-2)Man(a1-3)[Gal(b1-4)GlcNAc(b1-2)Man(a1-6)][Gal(b1-4)GlcNAc(b1-4)]Man(b1-4)GlcNAc(b1-4)[Fuc(a1-6)]GlcNAc
Method in brief: as §1

[19] = target: Gal(b1-4)GlcNAc(b1-2)Man(a1-3)[Gal(b1-4)GlcNAc(b1-2)Man(a1-6)][GlcNAc(b1-4)]Man(b1-4)GlcNAc(b1-4)[Fuc(a1-6)]GlcNAc
Method in brief: as §1

[20] = target: Gal(b1-4)GlcNAc(b1-2)Man(a1-3)[GlcNAc(b1-2)Man(a1-6)]Man(b1-4)GlcNAc(b1-4)GlcNAc
Method in brief: as §1

[21] = target: Gal(b1-4)GlcNAc(b1-2)Man(a1-3)[GlcNAc(b1-4)][Gal(b1-4)GlcNAc(b1-2)Man(a1-6)]Man(b1-4)GlcNAc(b1-4)GlcNAc
Method in brief: as §1

[22] = target: Gal(b1-4)GlcNAc(b1-2)Man(a1-3)[Man(a1-6)]Man(b1-4)GlcNAc(b1-4)GlcNAc
Method in brief: as §1

[23] = target: Gal(b1-4)GlcNAc(b1-2)Man(a1-6)Man(b1-4)GlcNAc(b1-4)GlcNAc
Method in brief: as §1

[24] = target: Gal(b1-4)GlcNAc(b1-2)Man(a1-6)[GlcNAc(b1-2)Man(a1-3)]Man(b1-4)GlcNAc(b1-4)GlcNAc
Method in brief: as §1

[25] = target: Gal(b1-4)GlcNAc(b1-2)Man(a1-6)[Man(a1-3)]Man(b1-4)GlcNAc(b1-4)GlcNAc
Method in brief: as §1

[26] = target: Gal(b1-4)GlcNAc(b1-2)[Gal(b1-4)GlcNAc(b1-4)]Man(a1-3)[Gal(b1-4)GlcNAc(b1-2)Man(a1-6)]Man(b1-4)GlcNAc(b1-4)GlcNAc
Method in brief: as §1

[27] = target: Gal(b1-4)GlcNAc(b1-2)[Gal(b1-4)GlcNAc(b1-4)]Man(a1-3)[Gal(b1-4)GlcNAc(b1-2)[Gal(b1-4)GlcNAc(b1-6)]Man(a1-6)]Man(b1-4)GlcNAc(b1-4)GlcNAc
Method in brief: as §1

[28] = target: Gal(b1-4)GlcNAc(b1-2)[Gal(b1-4)GlcNAc(b1-4)]Man(a1-3)[GlcNAc(b1-4)][Gal(b1-4)GlcNAc(b1-2)Man(a1-6)]Man(b1-4)GlcNAc(b1-4)GlcNAc
Method in brief: as §1

[29] = target: Gal(b1-4)GlcNAc(b1-2)[Gal(b1-4)GlcNAc(b1-4)]Man(a1-3)[GlcNAc(b1-4)][Gal(b1-4)GlcNAc(b1-2)[Gal(b1-4)GlcNAc(b1-6)]Man(a1-6)]Man(b1-4)GlcNAc(b1-4)GlcNAc
Method in brief: as §1

[30] = target: Gal(b1-4)GlcNAc(b1-2)[Gal(b1-4)GlcNAc(b1-6)]Man(a1-6)[Gal(b1-4)GlcNAc(b1-2)Man(a1-3)]Man(b1-4)GlcNAc(b1-4)GlcNAc
Method in brief: as §1

[31] = target: Gal(b1-4)GlcNAc(b1-2)[Gal(b1-4)GlcNAc(b1-6)]Man(a1-6)[Gal(b1-4)GlcNAc(b1-2)Man(a1-3)]Man(b1-4)GlcNAc(b1-4)[Fuc(a1-6)]GlcNAc
Method in brief: as §1

[32] = target: Gal(b1-4)GlcNAc(b1-2)[Gal(b1-4)GlcNAc(b1-6)]Man(a1-6)[GlcNAc(b1-4)][Gal(b1-4)GlcNAc(b1-2)Man(a1-3)]Man(b1-4)GlcNAc(b1-4)GlcNAc
Method in brief: as §1

[33] = target: Gal(b1-4)GlcNAc(b1-2)[Gal(b1-4)GlcNAc(b1-6)]Man(a1-6)[GlcNAc(b1-4)][Gal(b1-4)GlcNAc(b1-2)[Gal(b1-4)GlcNAc(b1-4)]Man(a1-3)]Man(b1-4)GlcNAc(b1-4)[Fuc(a1-6)]GlcNAc
Method in brief: as §1

[34] = target: Gal(b1-4)GlcNAc(b1-3)Gal(b1-3)GalNAc
Method in brief: as §1

[35] = target: Gal(b1-4)GlcNAc(b1-3)Gal(b1-3)GlcNAc
Method in brief: as §1

[36] = target: Gal(b1-4)GlcNAc(b1-3)Gal(b1-4)Glc
Method in brief: as §1

[37] = target: Gal(b1-4)GlcNAc(b1-3)Gal(b1-4)GlcNAc
Method in brief: as §1

[38] = target: Gal(b1-4)GlcNAc(b1-3)Gal(b1-4)GlcNAc(b1-2)Man(a1-3)[Gal(b1-4)GlcNAc(b1-3)Gal(b1-4)GlcNAc(b1-2)Man(a1-6)]Man(b1-4)GlcNAc(b1-4)GlcNAc
Method in brief: as §1

[39] = target: Gal(b1-4)GlcNAc(b1-3)Gal(b1-4)GlcNAc(b1-2)Man(a1-3)[Gal(b1-4)GlcNAc(b1-3)Gal(b1-4)GlcNAc(b1-2)Man(a1-6)]Man(b1-4)GlcNAc(b1-4)[Fuc(a1-6)]GlcNAc
Method in brief: as §1

B1: Cohesin-hDCIR (Homo sapiens) (protein)
chain: LDDLDAVRIKVDTVNAKPGDTVRIPVRFSGIPSKGIANCDFVYSYDPNVLEIIEIEPGDIIVDPNPDKSFDTAVYPDRKIIVFLFAEDSGTGAYAITKDGVFATIVAKVKEGAPNGLSVIKFVEVGGFANNDLVEQKTQFFDGGANVGDTTEPATPTTPVTTPTTTDDLDAASQKYSQLLEKKTTKELVHTTLECVKKNMPVEETAWSCCPKNWKSFSSNCYFISTESASWQDSEKDCARMEAHLLVINTQEEQDFIFQNLQEESAYFVGLSDPEGQRHWQWVDQTPYNESSTFWHPREPSDPNERCVVLNFRKSPKRWGWNDVNCLGPQRSVCEMMKIHLHHHHHH
In the case of B1, the “glycan array binding signal (z-score)” value [1] is reported as -0.586, the “glycan array binding signal (z-score)” value (Gal(b1-3)GlcNAc6S) is reported as -0.559 and the “glycan array binding signal (z-score)” value [2] is reported as -0.107. For the same binder, the “glycan array binding signal (z-score)” value [3] was -0.501, the “glycan array binding signal (z-score)” value [4] was -0.243 and the “glycan array binding signal (z-score)” value [5] was -0.386. The “glycan array binding signal (z-score)” value [6] was -0.415, the “glycan array binding signal (z-score)” value [7] was -0.439 and the “glycan array binding signal (z-score)” value [8] was -0.299. For the same binder, the “glycan array binding signal (z-score)” value [9] was -0.529, the “glycan array binding signal (z-score)” value [10] was -0.579 and the “glycan array binding signal (z-score)” value [11] was -0.678. The “glycan array binding signal (z-score)” value (Gal(b1-4)Gal) was -0.389, the “glycan array binding signal (z-score)” value [12] was -0.416 and the “glycan array binding signal (z-score)” value [13] was -0.582. The “glycan array binding signal (z-score)” value (Gal(b1-4)Glc) was -0.446, the “glycan array binding signal (z-score)” value (Gal(b1-4)Glc6S) was -0.325 and the “glycan array binding signal (z-score)” value (Gal(b1-4)GlcNAc) was -0.193. The “glycan array binding signal (z-score)” value [14] was 0.036, the “glycan array binding signal (z-score)” value (Gal(b1-4)GlcNAc(b1-2)Man) was -0.192 and the “glycan array binding signal (z-score)” value [15] was 0.28. For the same binder, the “glycan array binding signal (z-score)” value [16] was 0.859, the “glycan array binding signal (z-score)” value [17] was -0.335 and the “glycan array binding signal (z-score)” value [18] was -0.533. The “glycan array binding signal (z-score)” value [19] was -0.671, the “glycan array binding signal (z-score)” value [20] was 0.292 and the “glycan array binding signal (z-score)” value [21] was -0.594. For the same binder, the “glycan array binding signal (z-score)” value [22] was -0.403, the “glycan array binding signal (z-score)” value [23] was -0.401 and the “glycan array binding signal (z-score)” value [24] was -0.029. The “glycan array binding signal (z-score)” value [25] was -0.693, the “glycan array binding signal (z-score)” value [26] was -0.693 and the “glycan array binding signal (z-score)” value [27] was -0.587. For the same binder, the “glycan array binding signal (z-score)” value [28] was -0.569, the “glycan array binding signal (z-score)” value [29] was -0.57 and the “glycan array binding signal (z-score)” value [30] was -0.352. The “glycan array binding signal (z-score)” value [31] was 0.059, the “glycan array binding signal (z-score)” value [32] was -0.419 and the “glycan array binding signal (z-score)” value [33] was -0.655. The “glycan array binding signal (z-score)” value [34] was -0.458, the “glycan array binding signal (z-score)” value [35] was -0.676 and the “glycan array binding signal (z-score)” value [36] was -0.399. The “glycan array binding signal (z-score)” value [37] was -0.307, the “glycan array binding signal (z-score)” value [38] was 2.05 and the “glycan array binding signal (z-score)” value [39] was 1.82.

Reference: the supplement of paper PMC8728848
